Laboratory results as given in the antibiotic and cytotoxicity screens of Wong et al. (2023).
Some of the results follow.

test system: S. aureus RN4220; assay: growth inhibition call (relative growth <= 0.2); conditions: 50 µM

Growth inhibition call, inactive:
Cc1cc[nH]c(=O)c1
C[C@H](CO)NS(=O)(=O)c1ccnn1C
O=C(C[C@H]1C=C[C@H](NS(=O)(=O)c2ccc(F)cc2)[C@@H](CO)O1)N1CCC(Cc2ccccc2)CC1
C#CCN1CCS(=O)(=O)CC1
C[C@@H]1CN([C@H](C)CO)C(=O)c2cccc(NS(=O)(=O)c3ccc(F)cc3)c2O[C@H]1CN(C)Cc1ccc(Cl)c(Cl)c1
Cc1ccc(-c2ccc3c(c2)O[C@@H](CN(C)C(=O)CN(C)C)[C@@H](C)CN([C@@H](C)CO)S3(=O)=O)cc1
CC(=O)OCC[C@H](C)CCC=C(C)C
COc1ccc(S(=O)(=O)Nc2ccc3c(c2)C(=O)N([C@H](C)CO)C[C@H](C)[C@@H](CN(C)CC2CC2)O3)cc1
C[C@@H]1CN([C@@H](C)CO)C(=O)c2cc(NC(=O)Cn3cnnn3)ccc2O[C@@H]1CN(C)C(=O)Nc1ccccc1
C[C@H]1CCCCO[C@H](CN(C)C(=O)Nc2cccc3ccccc23)[C@@H](C)CN([C@@H](C)CO)C(=O)c2cc(NC(=O)c3ccncc3)ccc2O1
CO[C@H]1CN(C)C(=O)c2ccc(NS(=O)(=O)CC(F)(F)F)cc2OC[C@H](C)N(C(=O)c2ccc3c(c2)OCO3)C[C@@H]1C
COc1ccc(S(=O)(=O)Nc2cccc3c2O[C@@H](CN(C)S(=O)(=O)c2cn(C)cn2)[C@@H](C)CN([C@@H](C)CO)C3=O)cc1
CC(=O)NCCCC[C@@H]1NC(=O)[C@@H]2C[C@H](C(=O)NCCCCN(C)C)[C@H](c3ccc(O)cc3)N2C1=O
